The supplement of paper PMC3334620
Whole data set: some 33,000 sequences, median “E-score (-0.5 to 0.5)” near -0.054, cut for the highest 2% near 0.39. This is one part of the list.

biological target: Ylr278c (UniProt Q05854); assay: PBM E-score (8-mer binding enrichment) (E-score (-0.5 to 0.5)); higher = stronger / more preferred TF binding; most listed sequences are background and not binding sites; details: protein concentration: 200 nM; construct: GST-DNA-binding domain
Summary of the method: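 For each ungapped eight-base word taken together with its reverse complement, the Universal PBM Analysis Suite assigned an E-score. Binding data came from GST-tagged yeast transcription factors, applied at about 100-200 nM, on universal all-10-mer Agilent arrays made double-stranded by primer extension. Fluorescent anti-GST marked bound protein, and scans were normalised with masliner.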

Sequence	PBM E-score
CAGCGTGC	0.00705
ATTTTCAC	0.0946
TTCGTCAA	-0.142
AAGAACGT	-0.156
CCCCATGC	0.0873
ATCAGTAC	-0.112
ACGGGCAA	0.036
CAGACCCG	0.165
CTACTATC	0.125
CAATTCAG	-0.22
GTCTAAAC	0.0271
CGATCGAC	0.128
ATTCAATA	-0.0965
TTCATCAA	0.0271
TATTCTAA	-0.0279
TAGCATGA	-0.306
CGAATATC	0.0129
CACCTGAG	-0.226
AGGATAAG	-0.00372
ACAGGAAT	-0.086
GCGGCTAA	0.137
GACCAGGA	-0.0831
TGGGTGAA	0.0672
ACCCATCC	-0.0311
GAGCAATA	-0.0795

Sequence	PBM E-score
AGCACTTC	-0.0913
AAGTGGGG	0.0493
CATTAGTA	-0.0334
TCGATAGA	-0.275
TCGTTAAA	0.0488
CACATCTC	-0.0504
TCATCAAA	-0.118
CCTCCAAG	-0.202
ACCGTTAT	-0.103
ACTCATCA	-0.0156
AGGCACCA	-0.161
AATCGATA	-0.00804
AGAGCCCG	0.0714
ATTAACAA	-0.0142
GAACACCA	-0.127
GAATGACC	0.192
ACGCCTAC	-0.262
AATAGTTA	-0.0746
CCTTCCGC	0.299
GAGGATCC	0.186
GTCTCGTA	-0.0214
ACACATGC	-0.156
ATCACCTA	-0.271
TAAACAGA	-0.206
CTCAAGCA	-0.286

Sequence	PBM E-score
AATCATGC	-0.0275
CATTCTGC	0.0374
AAGTGGAG	-0.0974
CACGACGA	-0.244
ATCCGTTC	0.183
AATACAAT	-0.00114
AACGGTGA	-0.0213
CAAAACGA	-0.0347
ATGAGATC	-0.194
CAAATTAA	-0.0304
CGCGGTGC	0.181
AGGGGAGG	0.0252
ATCCACAT	-0.095
AAACAGTG	-0.126
CAACTTCG	0.0798
CTTCCTGA	-0.0288
AGCGTCCA	-0.185
AATATTTG	-0.0419
CGATTGAC	-0.165
ATACGGGA	0.133
ACCCGACA	0.213
CCTATATA	0.00168
CAAGCTAA	-0.23
ACGCCAGA	-0.13
AGACTCCG	0.418

Sequence	PBM E-score
GATTGCGA	0.159
CATATCAG	-0.131
CGGTTGAC	0.145
AGATTCTG	-0.239
CGTAAAGA	-0.197
CAGACCCA	-0.233
CTGCTAGA	-0.0591
GCGTCCTA	-0.192
CCCGGCCG	0.354
CATACATC	-0.0121
GGGTACCC	0.0629
CAAAGCCA	-0.229
AATACTGG	-0.112
CCCAGCAC	-0.0751
ACCAGGCC	-0.116
TAAATCGA	-0.162
CAGTGGGG	-0.204
GAGGAAAC	0.0855
CCCGCTAA	0.101
AACAGATA	-0.017
ACCTATAA	-0.105
CTGCTGTC	-0.0508
ATCGAGTC	-0.157
GACTTACA	-0.137
CACTAGTA	-0.104

Sequence	PBM E-score
GATGCCTA	-0.246
GCGGTGCC	0.15
GATGCCAC	-0.128
AGTTTCGC	-0.0287
ACCTTAAC	-0.0432
GGTGTATA	-0.146
AACCGTCC	0.0297
ATTAAGAG	-0.0169
ACCAGCCC	0.191
CACCACAC	-0.035
CGTGACAG	-0.0898
ATCCGACA	0.382
AGCGCGGG	0.204
CCGAAGCA	0.104
CAACATTG	-0.0224
CATGTAGA	-0.012
GCTGGATA	-0.184
ATCTGCAC	-0.0743
GACTTTCC	0.137
AGACGATG	-0.00363
GCCCAGGA	-0.0781
TAACTATA	-0.202
GCGGCAGC	-0.00346
GACTAGCA	-0.0966
AATCGAAT	0.127

Sequence	PBM E-score
ACGCTGTA	-0.0084
CTTTAGAA	0.0574
ACGTAGGA	-0.159
CTGCCGCA	-0.0562
CTATAATC	-0.119
AGCGCCGC	0.211
CACCCGAA	0.134
AATGCCGA	0.392
GTCGTCGA	-0.121
AGCAGAGA	-0.224
GGCGAAAA	0.135
ACGAAATG	-0.201
GCATTTAA	0.0391
CCATCGCG	0.231
GAAGTCCA	-0.0243
AGAAGGCA	-0.0837
CCGAGCAC	0.182
AGTACGCC	-0.044
ACGGTCTC	0.0504
ATTAGTCG	0.038
CACATCAG	-0.111
GGGTAGTA	-0.0481
CGGCTTAG	0.14
ACTCCCTA	-0.269
CCTAACAC	0.0521

Sequence	PBM E-score
AAACTTCT	0.0669
GGCAAGCC	-0.0477
AATTTGTG	0.137
AAGGACAA	-0.0544
CCGGCTAA	0.313
AACGCACT	-0.0337
CTGGGACA	-0.185
TAGCGCAA	0.0105
GCGTATTA	-0.0181
GTAGCGCA	-0.0535
AATTACAA	-0.192
AGATTTAT	0.135
AACATAAA	-0.213
GGGGACGA	-0.0275
ACAACACG	-0.066
TTAGGCAA	-0.229
CCATACGG	0.125
ACTAGAGG	-0.185
GGGAGCGA	-0.116
GATCTAAA	0.0142
ATCACTCA	-0.207
CCGAGTGA	0.233
GATACTCA	0.146
GACTCGCC	0.0201
GGGATGCA	-0.0857

Sequence	PBM E-score
ACAATCTA	-0.187
CATCTGGG	-0.234
GCTTAGCC	0.0388
CGCACACC	-0.0536
ACGGCTTA	0.0899
AGACACGA	-0.175
ATCTACCG	0.143
TGACTGAA	-0.26
AACTAGAG	-0.307
AGCTCCTA	-0.0358
CTATGCGC	0.0449
CAACCTTC	-0.0706
AGTAAGCA	-0.281
GCTTTTCC	0.244
TCTCGCAA	-0.0672
GAGCATCA	-0.141
TCTGATCA	-0.102
GAGGGCTA	-0.166
GAGTGTTA	-0.0184
ACTTTGAT	-0.0974
AAAGTACA	-0.156
AGCCGTCC	0.155
ACATCCAC	-0.0863
AAAAATAG	0.0524
AATGGTAC	-0.223

Sequence	PBM E-score
GGTGCTGA	-0.0264
CCGGGTCG	0.313
CGGCAAGA	0.175
ACGGTGCT	-0.0789
GGCACTAA	0.0202
ACCGGATG	0.279
AGGATGAT	-0.149
CGACGCGA	-0.00305
GGCATCCC	0.00309
GGCTCAGA	-0.0959
CATCCAGA	-0.226
CCACACAA	-0.186
CGTGGTGA	-0.0724
ACTAGCAA	-0.104
CGGCGCGA	0.295
AGCCCACT	-0.156
ACCCGATA	0.141
CTTGTAGC	-0.0687
ACGCGGAC	0.342
GCTGGTAC	0.00772
CCACGCCA	-0.347
GTCGTAGA	-0.127
AGCCCCCT	-0.299
ACGCAGTA	-0.0608
GGATGTCA	0.129

Sequence	PBM E-score
CTCTGCTA	-0.128
CCGTGAGA	0.0791
CACGTTTC	0.0398
ATCACTGG	-0.176
ATGCTCAA	-0.0531
ATCTTGCG	0.107
GGACACAA	0.124
CAGTCGCG	-0.0179
CATCATAG	-0.0591
CCTACCAC	-0.19
ATAGCGGG	0.0855
ATTCCGAA	0.456
CCCTATCG	-0.117
ATGGGAAC	-0.116
ACTTAGTC	-0.126
TCTAGCAA	-0.0561
CGTCCTTC	0.0799
CGTATAGA	-0.153
AGAAAGGC	-0.0463
GCATCTAA	0.106
CACGGAAC	0.276
ACTTAAAT	-0.129
ACTGTAAG	0.0137
TATAGTGA	-0.263
TCGTAGCA	-0.109

Sequence	PBM E-score
GTGTTAAC	-0.21
CGCCCACC	0.0265
GGAGAGAC	0.201
AGCTTGTA	-0.263
GCCCTACA	-0.0147
ACTTAGAC	-0.14
ATAAAGAT	-0.0953
CATGCGGG	0.0357
CAAGCGTC	-0.121
AGGCGGGA	0.136
ATGGCTAC	-0.185
GAGACATC	-0.0277
GACTACTA	-0.0974
CTATAAGC	-0.0751
AAGAAAAT	0.0515
CAGGTACG	-0.123
CGCAATCA	0.124
GCGCGGAA	0.387
CAGGTGTA	-0.197
GCTGCGTA	-0.264
GTCCAATA	0.106
GAAGGGCC	-0.103
GAGACGCA	0.0249
CAGTGAAC	-0.136
GTAACCAA	-0.00064

Sequence	PBM E-score
ACTTTCAA	0.0431
GATAAGAC	0.0109
GCCTGCGC	-0.00627
ACACCGGA	0.416
GACGTAAA	0.1
AGTACCTG	-0.251
CCATTCTA	-0.0579
ACTTCGTG	-0.225
CGAAAATC	0.0899
TATCGTCA	-0.218
ACGCGGCT	0.0317
AGCTACAT	-0.239
CGAGATCA	0.013
CCACTCCA	-0.0346
CATTGCCA	-0.0974
TCAAGCAA	-0.068
AGCCGACG	0.266
CTTCGGGA	0.195
CCGCGTGA	0.226
CCATAGTC	-0.0926
GAATGGTC	0.0638
ACAATGGT	-0.255
AAGCGATT	-0.139
AACCCCAA	0.0839
ATTCCAGG	-0.0513

Sequence	PBM E-score
ACCTGTAC	-0.161
AGACCTCG	-0.139
CCCGTCCA	0.0374
GATAAGTA	0.0578
GATCCGCA	0.273
CCCGCATC	0.0872
CGAACGAC	0.0861
CCTGACAA	-0.202
TACGGCAA	0.129
AGGCTGTC	-0.147
CCAGGGTC	-0.158
GCCGGAAC	0.432
ACATTTCA	0.00316
ATAGTTCA	-0.103
ATAATGCA	-0.276
AATCCCGA	0.42
ACACCCGG	0.294
AGTTGCAT	-0.0017
ACAGCAAA	-0.115
CGTGGAAA	0.193
AGAGCATA	-0.162
CGCAGCAC	-0.0197
AATATGGG	-0.259
CTTGCTCA	-0.0969
ACATACAT	-0.0377

Sequence	PBM E-score
ATTCTTGC	0.00795
GCTCGGAC	0.382
CGTCTGCC	0.0806
GTCCACAC	0.0892
GATATATC	0.137
ACTGAGTA	-0.295
CTGGAATA	-0.00539
AAGACCAG	-0.0179
AACTACGC	0.15
CGTTTAGA	-0.0047
GAGCGCCA	0.0167
GTAGCAAC	-0.0765
CACGTTGG	-0.266
ACGGCGCG	0.226
ACTCCATA	-0.0745
CGTCGACC	-0.067
ATAGCCGC	0.175
CACCGCAG	0.104
AACAGGCA	-0.192
